The other results are listed elsewhere or left out. Cleavage of a single-stranded DNA pool by Rep nickase domains was read by sequencing (1 h at 37 °C, 3 µM enzyme); the outer parts of the 90-letter strands are left off. Numbers give uncut DNA relative to the enzyme-free pool, as log2; more negative means more cut, near 0 not cut, and no call is made. Counts are relative to all reads; where an enzyme cuts many sequences, the uncut ones exceed 0.
Tested on: T1, Rep nickase domain of tomato golden mosaic virus
T1 sequence (residues 1-124, tag not shown): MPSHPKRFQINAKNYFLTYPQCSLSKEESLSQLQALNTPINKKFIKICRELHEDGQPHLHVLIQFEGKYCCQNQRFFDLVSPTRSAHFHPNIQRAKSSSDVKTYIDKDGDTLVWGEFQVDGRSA
Assay: uncleaved DNA left, log2 of reads against the no-enzyme library (log2 ratio); higher = less cleavage (more negative = more Rep cleavage of the k-mer); sequences stand for … in CTCGTCCG…ACCGGAGA
Procedure: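 A pool of 90-nt single-stranded DNAs with seven random bases just before the constant AC of the nick site (name = the seven bases) was cut by 3 µM recombinant His6-SUMO-tagged Rep nickase domain (300 nM DNA, 50 mM HEPES pH 8.0, 50 mM NaCl, 1 mM MnCl2, 1 h, 37 °C, three replicates). Uncut DNA was amplified and sequenced.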

Question: How did the “uncleaved DNA left (log2)” value turn out when TGGGTGT was run?
Answer: Its value is -0.107.

Question: With GTGCGTT as the sequence, how does the “uncleaved DNA left (log2)” value read?
Answer: Its value is 0.0594.

Question: AGTCTCT was tested. Which “uncleaved DNA left (log2)” value did it give?
Answer: Its value is -0.0632.

Question: ATGATCG was tested. Which “uncleaved DNA left (log2)” value did it give?
Answer: The value was -0.113.

Question: With CCACACG as the sequence, how does the “uncleaved DNA left (log2)” value read?
Answer: Its value is 0.0388.

Question: CTCCGGC was tested. Which “uncleaved DNA left (log2)” value did it give?
Answer: Its value is 0.0363.

Question: With GCAAAGG as the sequence, how does the “uncleaved DNA left (log2)” value read?
Answer: The value was 0.176.

Question: Which “uncleaved DNA left (log2)” value does the source give for ACAGGGT here?
Answer: The value was 0.139.

Question: How did the “uncleaved DNA left (log2)” value turn out when CCGAGGT was run?
Answer: Its value is 0.0422.

Question: With TTTGAAG as the sequence, how does the “uncleaved DNA left (log2)” value read?
Answer: The value was 0.0684.

Question: How did the “uncleaved DNA left (log2)” value turn out when ACCGCCT was run?
Answer: The value was 0.0208.

Question: With TTCATGG as the sequence, how does the “uncleaved DNA left (log2)” value read?
Answer: The value was 0.138.

Question: For ACAAGTG, which “uncleaved DNA left (log2)” value is on record?
Answer: The value was 0.101.

Question: For AATTTCG, which “uncleaved DNA left (log2)” value is on record?
Answer: The value was 0.0312.

Question: For ATCGTAT, which “uncleaved DNA left (log2)” value is on record?
Answer: The value was 0.0458.

Question: Which “uncleaved DNA left (log2)” value does the source give for CACTGTT here?
Answer: The value was -0.494.

Question: Which “uncleaved DNA left (log2)” value does the source give for CACCTCC here?
Answer: Its value is -0.227.

Question: How did the “uncleaved DNA left (log2)” value turn out when CCTGATT was run?
Answer: Its value is 0.125.

Question: How did the “uncleaved DNA left (log2)” value turn out when GATAAAA was run?
Answer: The value was 0.0382.

Question: Which “uncleaved DNA left (log2)” value does the source give for GCACATG here?
Answer: The value was -0.0818.

Question: With TTGGTGC as the sequence, how does the “uncleaved DNA left (log2)” value read?
Answer: Its value is -0.206.

Question: For GGACTTG, which “uncleaved DNA left (log2)” value is on record?
Answer: The value was -0.0373.

Question: ATACTAA was tested. Which “uncleaved DNA left (log2)” value did it give?
Answer: Its value is 0.157.

Question: TTCATAT was tested. Which “uncleaved DNA left (log2)” value did it give?
Answer: Its value is 0.0726.

Question: GGGTTTA was tested. Which “uncleaved DNA left (log2)” value did it give?
Answer: Its value is -0.0292.

Question: Which “uncleaved DNA left (log2)” value does the source give for TTAACTG here?
Answer: The value was 0.0205.

Question: GCAAGCC was tested. Which “uncleaved DNA left (log2)” value did it give?
Answer: Its value is 0.00664.

Question: With CACCAAT as the sequence, how does the “uncleaved DNA left (log2)” value read?
Answer: Its value is -0.0905.

Question: For GATCTCC, which “uncleaved DNA left (log2)” value is on record?
Answer: The value was 0.0208.

Question: With CTGCTCT as the sequence, how does the “uncleaved DNA left (log2)” value read?
Answer: The value was 0.00837.

Question: CCGGTGG was tested. Which “uncleaved DNA left (log2)” value did it give?
Answer: The value was 0.0632.

Question: For GTGGCTA, which “uncleaved DNA left (log2)” value is on record?
Answer: Its value is 0.0619.

Question: Which “uncleaved DNA left (log2)” value does the source give for TAGAAGT here?
Answer: The value was 0.0622.

Question: How did the “uncleaved DNA left (log2)” value turn out when GGTTCGA was run?
Answer: The value was 0.0473.

Question: Which “uncleaved DNA left (log2)” value does the source give for GGCATAC here?
Answer: The value was 0.0558.

Question: With GCGTCGG as the sequence, how does the “uncleaved DNA left (log2)” value read?
Answer: The value was 0.23.

Question: CGTACAA was tested. Which “uncleaved DNA left (log2)” value did it give?
Answer: Its value is 0.075.

Question: For TGAATAT, which “uncleaved DNA left (log2)” value is on record?
Answer: Its value is 0.0402.

Question: ACTTTCT was tested. Which “uncleaved DNA left (log2)” value did it give?
Answer: Its value is -0.0103.

Question: With TGGCGAG as the sequence, how does the “uncleaved DNA left (log2)” value read?
Answer: The value was -0.123.

From the supplement of paper PMC7826260
